Results published in PubChem BioAssay AID463173 (ICCB-Longwood Screening Facility, Harvard Medical School, 2010).
Among all 52,000 compounds or so, about 1,700 (3.3%) were called active. Cut-off read from the data, not from the text of the source: active = survival mostly below about 52% (no sharp cut-off); inactive = mostly above about 56%. This is one part of the list.

Each compound was assayed on Wild type (assay: growth inhibition of S. aureus wild type versus tarO mutant, primary screen, teichoic acid synthesis inhibitors, RN4220, OD600 (AID 463173)). Settings: S. aureus RN4220 wild type/DeltatarO growth, OD600, 18 h, hits give low values, screened at 18.75 µg/mL (by protocol).

| SMILES | survival |
| --- | --- |
| O=C(Cn1c(=O)nc(-c2ccccc2)c2ccccc21)NCc1ccc(F)cc1 | inactive: 68% |
| CCOC(=O)c1cc(=O)n2[nH]c(-c3ccc(Br)cc3)cc2n1 | inactive: 106% |
| COc1ccc(-c2noc(CN(C(C)C)S(=O)(=O)c3ccc(Br)cc3)n2)cc1 | inactive: 81% |
| CC1=C(C(=O)N2CCN(c3cccc(C)c3C)CC2)C2(CCCCC2)OC1=O | inactive: 91% |
| Cc1cc(O)c(C(c2ccccc2)N2CCN(C)CC2)c(=O)n1Cc1ccco1 (centres undefined) | inactive: 121% |
| C=Cc1ccc(CN2C(=O)c3ccccc3Sc3ccc(C(=O)OCc4ccco4)cc32)cc1 | inactive: 70% |
| O=C(Nc1ccccc1)N(Cc1ccc(F)cc1)c1ccccn1 | inactive: 84% |
| CCOC(=O)c1c(C)[nH]c(C)c1S(=O)(=O)NCC(=O)N1CCN(c2cccc(C)c2)C(C)C1 (centres undefined) | inactive: 120% |
| Cc1cccc(NC2=CC(c3cccc(Br)c3)N(c3cccc(C)c3)C2=O)c1 (centres undefined) | inactive: 118% |
| Cc1nc2ccc(S(=O)(=O)NC(CC(C)C)C(=O)N3CCN(c4ccc(F)cc4)CC3)cc2s1 (centres undefined) | inactive: 84% |
| O=C1CCC(=O)N1CC(=O)N1CCCc2ccccc21 | inactive: 113% |
| Cc1ccc(CNC(=O)c2c(O)nc3c(C)cccn3c2=O)cc1 | inactive: 85% |
| Cc1ccc(C)c2[nH]c(=O)c(CN(Cc3ccco3)Cc3nnnn3C(C)(C)C)cc12 | inactive: 105% |
| CCN(CC)CCCNC(=O)c1ccc2c(c1)NC(=O)C(CS(=O)(=O)Cc1cccc(Br)c1)N2 (centres undefined) | inactive: 121% |
| CN(C)c1ccc(CNS(=O)(=O)c2ccc3[nH]c4c(c3c2)CCCCC4)cc1 | inactive: 71% |
| CC1Oc2ccccc2N(CC(=O)NC2CCCC2)C1=O (centres undefined) | inactive: 97% |
| COc1ccc(Br)cc1CNC(=O)c1nn(-c2ccc(C)cc2)c(=O)c2c1c1ccccc1n2C | inactive: 126% |
| Cc1ccccc1-c1noc(-c2cccnc2N(C)Cc2ccc(Cl)cc2)n1 | inactive: 99% |
| O=C(c1ccccc1)N(Cc1ccc2c(c1)OCO2)Cc1nc2ccccc2c(=O)[nH]1 | inactive: 109% |
| CCOC(=O)c1ccc(NC(=O)c2csnn2)cc1 | inactive: 109% |
| CCOC(=O)c1cccc(NC(=O)CCC(=O)N2CC(C)Oc3ccc(C)cc32)c1 (centres undefined) | inactive: 81% |
| O=C(C1CC1)N1CCN(c2nc3c(Cl)cccc3s2)CC1 | inactive: 73% |
| Fc1ccc(Cc2cn3cc(-c4ccccc4)nc3s2)cc1 | inactive: 69% |

| SMILES | survival |
| --- | --- |
| COc1ccc(CCNC(=O)CSc2nnnn2-c2cccc(C(C)=O)c2)cc1OC | inactive: 79% |
| CC1CCN(S(=O)(=O)c2ccc3c(c2)N(CC(=O)NC(C)C)C(=O)CO3)CC1 | inactive: 81% |
| Cc1ccc(-c2nnc(Nc3ccc(Cl)c(Cl)c3)c3ccccc23)cc1S(=O)(=O)NCCO | inactive: 136% |
| COc1cccc(CNC(=O)CSc2ncc(S(=O)(=O)c3ccc(Br)cc3)c(=O)[nH]2)c1 | inactive: 68% |
| CC1CCN(S(=O)(=O)c2ccc3c(c2)CCN3C(=O)Nc2ccc(Br)cc2)CC1 | inactive: 82% |
| Cc1ccccc1C(=O)N1CCN(CCc2ccccn2)CC1 | inactive: 83% |
| COc1ccc(CNC(=O)c2ccc3c(c2)CCN3S(=O)(=O)c2ccc(C)cc2)cc1 | inactive: 99% |
| C=CCC(C)(NCc1ccccc1)c1ccco1 (centres undefined) | inactive: 104% |
| Cc1ccc(NC(=O)C2CCCN2S(=O)(=O)c2cccc3nsnc23)cc1Cl (centres undefined) | inactive: 67% |
| COc1ccc(CNC(=O)CSc2ncc(S(=O)(=O)c3ccc(C)c(Cl)c3)c(=O)[nH]2)cc1 | inactive: 69% |
| Cc1c(C(=O)Nc2ccc(C(C)C)cc2)sc2nc[nH]c(=O)c12 | inactive: 73% |
| O=C1c2cccc3c(N4CCNCC4)ccc(c23)C(=O)N1c1ccc(Cl)cc1 | inactive: 103% |
| COc1ccc(C)cc1NC(=O)CSc1ccc(-c2ccccn2)nn1 | inactive: 81% |
| COc1ccc(CNC(=O)C2CCCN2)cc1OC (centres undefined) | inactive: 102% |
| Cn1c(SCC(=O)c2ccc(F)cc2)nnc1-c1ccccc1Br | inactive: 74% |
| Cc1cccc(NC(=O)c2oc3ccccc3c2NC(=O)c2cc(=O)c3cc(Cl)ccc3o2)c1 | inactive: 85% |
| COc1ccc2cc(CN(CC3COCCO3)S(=O)(=O)c3c(C)cc(C)cc3C)c(=O)[nH]c2c1 (centres undefined) | inactive: 106% |
| COc1ccccc1C(=O)Nc1c(C(=O)N(C)c2ccccc2)sc2nc(C)cc(C)c12 | inactive: 91% |
| O=C(CCS(=O)(=O)c1cc(Br)cc2c1N(C(=O)C1CC1)CC2)Nc1ccc(C(F)(F)F)cc1 | inactive: 81% |
| COc1cccc(CNC(=O)CN2C(=O)COc3ccc(S(=O)(=O)Nc4ccccc4)cc32)c1 | inactive: 73% |
| Cn1c(=O)c2sccc2n2c(CCC(=O)NCc3ccccc3Cl)nnc12 | inactive: 146% |
| CN(Cc1ccccc1)C(=O)C1CCN(S(=O)(=O)c2ccc3nc4c(c(C(=O)O)c3c2)CCCC4)CC1 | inactive: 87% |
| COc1ccc(CNC(=O)C2CCN(C(=O)N3CC(C)Oc4ccc(C)cc43)CC2)cc1 (centres undefined) | inactive: 114% |

| SMILES | survival |
| --- | --- |
| Cc1ccc(S(=O)(=O)Nc2nc3n(n2)C(c2ccccc2Cl)C=C(c2ccccc2)N3)cc1 (centres undefined) | inactive: 53% |
| O=C(NC1CCCC1)C1C2C=CC(C2)C1C(=O)N1CCOCC1 (centres undefined) | inactive: 124% |
| COc1ccc(-c2nc(Cn3c(SCc4ccccc4F)nc4ccncc43)c(C)o2)cc1OC | inactive: 66% |
| CCOc1ccc(C(=O)Nc2cc(-c3cn4cccnc4n3)ccc2C)cc1OCC | inactive: 83% |
| CCOC(=O)c1c(C(F)(F)F)cc(-c2ccccc2)nc1C | inactive: 102% |
| O=C1CCCN1C(=O)CCC(=O)N1CCCC1=O | inactive: 102% |
| Cc1cc(C)cc(NC(=O)C2CCC(CNS(=O)(=O)c3ccc4c(c3)C(C)(C)C(=O)N4C)CC2)c1 (centres undefined) | inactive: 115% |
| COc1ccc(CCNC(=O)c2c(C)oc3ncn(CC(C)C)c(=O)c23)cc1OC | inactive: 55% |
| CCn1cc(C(=O)NCCc2ccc(C)cc2)c(=O)c2cc(S(=O)(=O)N3CCCCC3)ccc21 | inactive: 139% |
| CC1CCN(c2ncnc3c2nnn3C)CC1 | inactive: 83% |
| CCc1ccc2[nH]c(=O)c(C(c3nnnn3C3CCCCC3)N3CCCC3)cc2c1 (centres undefined) | inactive: 112% |
| O=C(Cn1c(=O)n(-c2ccc(Cl)cc2)c(=O)c2oc3ccccc3c21)Nc1ccccc1 | inactive: 99% |
| O=C(c1ccco1)N1CCN(c2nc3c(Cl)cccc3s2)CC1 | inactive: 133% |
| CCN(CC)S(=O)(=O)c1nnc(NC(=O)c2ccc(C(C)C)cc2)s1 | inactive: 55% |
| COc1ccc(C2=C(C)C(=O)N(Cc3ccc(C(=O)Nc4cc(C)ccc4C)cc3)S2(=O)=O)cc1 | inactive: 85% |
| O=C(Cc1ccc(Cl)cc1)NCC(c1cccs1)S(=O)(=O)c1ccc(F)cc1 (centres undefined) | inactive: 66% |
| Cn1cnc(S(=O)(=O)N2CCC(C(=O)NCc3ccc(F)cc3)CC2)c1 | inactive: 65% |
| COc1cccc(C(=O)Nc2ccccc2-c2nnc(-c3cc(OC)ccc3Br)o2)c1 | inactive: 80% |
| Cc1cccc(N2CCN(CCCNC(=O)c3nnc(Cc4c(F)cccc4Cl)o3)CC2C)c1 (centres undefined) | inactive: 81% |
| Cc1nn2c(=O)cc(COC(=O)c3cccc(NC(=O)c4ccc(C(C)(C)C)cc4)c3)nc2s1 | inactive: 58% |
| CCCCSC1=NC(C)(C)CC(C)O1 (centres undefined) | inactive: 103% |
| CC1SC(NC(=O)COc2ccccc2)=NC1=O (centres undefined) | inactive: 110% |
| COc1cccc(C(=O)Nc2ccc3nc(N4CCC(C)CC4)cc(C)c3c2)c1 | inactive: 57% |

| SMILES | survival |
| --- | --- |
| O=C(COC(=O)c1cccc(NC(=O)c2ccc(Br)cc2)c1)c1ccc(Br)cc1 | inactive: 85% |
| CCOC(=O)c1[nH]c2c(c1Cc1ccccc1OC)C(=O)CC(c1ccc(OCC)cc1)C2 (centres undefined) | inactive: 110% |
| O=C(NCc1ccc2c(c1)OCO2)c1ccccc1Cl | inactive: 97% |
| COc1ccc(C(=O)CCC(=O)Nc2ccc(OC)c(Cl)c2)cc1 | inactive: 91% |
| Cc1ccc(S(=O)(=O)c2nc(S(C)(=O)=O)sc2NCc2ccccc2)cc1 | inactive: 88% |
| CCOC(=O)c1c(C)oc2nc(C)nc(NCCc3ccc(SC)cc3)c12 | inactive: 75% |
| CC(C)COC(=O)Cc1c(O)c2ccccc2[nH]c1=O | inactive: 113% |
| COc1cc(NC(=O)Cn2nc(-c3ccc(C)c(C)c3)ccc2=O)cc(OC)c1 | inactive: 76% |
| CCN(CC)S(=O)(=O)c1ccc2c(c1)N(CC(=O)Nc1ccc(C)cc1C)C(=O)C1CCCN21 (centres undefined) | inactive: 82% |
| CC(C)NC(=O)c1ccccc1NC(=O)c1nsc2ccccc12 | inactive: 53% |
| COc1ccccc1N1CCN(c2nc3ccc(C)cc3n3nnnc23)CC1 | inactive: 133% |
| COc1ccc(C2=CC(c3cccc(C)c3)n3nnnc3N2)cc1 (centres undefined) | inactive: 71% |
| CCCCn1cc(S(=O)(=O)c2ccc(F)cc2)c(=O)c2ccccc21 | inactive: 83% |
| COc1ccccc1CNC(=O)c1ccc(-c2nc(CS(=O)c3ccccc3)c(C)o2)cc1 (centres undefined) | inactive: 71% |
| Cc1ccc(Cl)cc1NC(=O)CN1C(=O)COc2ccc(S(=O)(=O)N3CCOCC3)cc21 | inactive: 108% |
| CCOc1ccc2nc(N3CCCC(C(=O)Nc4cccc(Cl)c4C)C3)sc2c1 (centres undefined) | inactive: 81% |
| CCc1cc2c(cc3c(=O)n(CC(=O)N4CCCCC4)ncn32)s1 | inactive: 107% |
| CCCCN(CCCC)CCNC(=O)c1cc(-c2cccnc2)nc2ccc(S(=O)(=O)N3CCC(C)CC3)cc12 | inactive: 72% |
| COc1ccc(N(Cc2cccs2)C(=O)COc2ccc(C(C)C)cc2)cc1 | inactive: 78% |
| COc1ccc(S(=O)(=O)c2c(Nc3ccc(C)cc3)sc(C(=O)c3ccc4c(c3)OCO4)c2N)cc1 | inactive: 143% |
